Source: PubChem BioAssay AID485364 (National Center for Advancing Translational Sciences (NCATS), 2010)
Values joined by “and” are separate entries in the source; they are usually repeats but may differ in a detail not shown here. Identical values can stand only once. Among all 360,000 compounds or so, about 11,000 (3.1%) were called active. The shares of active, inactive and inconclusive entries below differ from those in the screen. Calls follow the shape of the dose curve; as a rule, active = well fitted inhibition curve with a large enough effect; inconclusive = small, poorly fitted or top-dose-only effect; inactive = no such curve, though single readings can be large or run the other way. No potency is given beside an inconclusive call; the fits are too rough. A structure can be active in one record and inactive in another.

The compounds below were run against Schistosoma mansoni thioredoxin glutathione reductase (TGR) (UniProt Q962Y6) (assay: qHTS Assay for the Inhibitors of Schistosoma Mansoni Peroxiredoxins). Conditions: purified TGR, DTNB reduction, TNB absorbance 405 nm; activity change, negative = inhibition: at 114 µM (top of the series) unless noted.
Summary of the method: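 First, TGR (20 nM dispensed) and NADPH were mixed with compound. Second, a 15 min room-temperature incubation followed. Third, further NADPH and then DTNB were added to start the reaction. Finally, TNB absorbance was monitored kinetically.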
% is scaled to controls: 0 for no effect and ±100 for the full control effect; potency is read from the fitted curve at half-maximal effect; tags tell the direction and shape of the fitted curve.
Also: nearly all actives have a fitted effect of over 60% in size.

Row | Structure (SMILES) | activity change, negative = inhibition | Potency
1 | CCn1c(SCC(=O)c2ccc(Cl)cc2)nnc1C(C)C | inactive: 0% | 
2 | CCN=C1S/C(=C\c2ccc(-c3cccc(C(=O)O)c3)o2)C(=O)N1CC |  | inconclusive [inhibitor, partial curve]
3 | C[C@@H]1CC=C[C@H]2[C@H]1C(=O)N(Cc1ccccc1)[C@H]2c1cccc([N+](=O)[O-])c1 |  | inconclusive [inhibitor, partial curve]
4 | CCOc1ccc(Cn2c(O)cc(=O)[nH]c2=O)cc1 |  | inconclusive [inhibitor, full curve, poor fit]
5 | O=C(CCN1C(=O)c2ccc([N+](=O)[O-])cc2C1=O)Nc1ccccc1C(=O)O |  | inconclusive [inhibitor, partial curve]
6 | Cn1cc(CCNC(=O)c2ccc3nc(Cc4ccccc4F)oc3c2)cn1 | inactive: 5.08% | 
7 | Cc1ccc(C(=O)CN2C(=O)C(=O)N(Cc3ccccc3)C2=O)cc1 |  | inconclusive [inhibitor, partial curve]
8 | COc1ccc(C(=O)NC(=S)Nc2ccccc2F)cc1 | inactive: -19% | 
9 | O=C(NC(=S)Nc1ccc(S(=O)(=O)N2CCCCC2)cc1)c1ccc(Cl)cc1 |  | inconclusive [inhibitor, full curve, poor fit]
10 | Cc1ccnc(NC(=O)CCC(=O)c2cccs2)c1 |  | inconclusive [inhibitor, partial curve]
11 | COc1ccc(S(=O)(=O)Cc2ccc(C(=O)N3CCC4(CC3)OCCO4)o2)cc1 |  | inconclusive [inhibitor, partial curve]
12 | COc1cccc(NC(=O)Nc2ccc3nsnc3c2)c1 | inactive: 2.81% | 
13 | COc1ccc(-c2nnc(SCC(=O)Nc3ccc(C(C)=O)cc3)nc2-c2ccc(OC)cc2)cc1 | inactive: -2.57% | 
14 | O=C1CC(N2CCN(c3ccccn3)CC2)C(=O)N1c1ccc(F)cc1 (configuration not stated) |  | inconclusive [inhibitor, partial curve]
15 | CCOc1c(Br)cc(/C=C2\N=C(C)OC2=O)cc1Br |  | inconclusive [inhibitor, full curve]
16 | N#CC1=C2SCN(c3ccccc3)CN2C(=O)CC1c1cccs1 (configuration not stated) |  | inconclusive [inhibitor, single point]
17 | Cc1nn(C)c(C)c1CNC(=O)c1cnn2c1NC(c1ccccc1)CC2C(F)(F)F (configuration not stated) | inactive: 6.34% | 
18 | NC(=O)c1ccc(NC(=O)CSc2nnc(-c3cccnc3)n2Cc2ccco2)cc1 |  | inconclusive [inhibitor, partial curve]
19 | O=C1CC(c2ccco2)CC(O)=C1C=NCCN1CCNCC1 (configuration not stated) |  | active: 39.8 µM
20 | Cc1ccc(C)c(N2CCN(C(=O)CCS(=O)(=O)c3ccc4c(c3)CC(=O)N4C)CC2)c1 |  | inconclusive [inhibitor, full curve]
21 | CCc1nnc2c(NCCc3ccc(OC)c(OC)c3)nc3ccccc3n12 |  | inconclusive [inhibitor, partial curve, poor fit]
22 | C#Cc1ccc([C@H]2C=C(C(=O)N3CCN(Cc4ccccc4)CC3)O[C@@H](OCC)[C@@H]2CCCO)cc1 |  | inconclusive [inhibitor, full curve, poor fit]
23 | CNC(=S)Nc1cc(OC)ccc1OC |  | inconclusive [inhibitor, partial curve]
24 | CCOc1cccc(CNc2ccc(O)cc2)c1OCc1ccccc1Cl |  | active: 44.7 µM

Row | Structure (SMILES) | activity change, negative = inhibition | Potency
25 | O=C(CSc1nnc(-c2ccco2)o1)Nc1c(F)cccc1F | inactive: -18% | 
26 | O=c1cc(CN2CCC(Cc3ccccc3)CC2)nc2sccn12 | inactive: 6.26% | 
27 | O=C(OCC(=O)N1CCN(C(=O)c2ccco2)CC1)c1ccccc1 |  | inconclusive [inhibitor, single point]
28 | Fc1ccc(CNc2ncnc3c2cnn3-c2ccccc2)cc1 | inactive: 3.26% | 
29 | Cc1n[nH]c(C)c1Cc1c(F)cccc1Cl | inactive: 4.4% | 
30 | CCOC(=O)N1CCC(NC(=O)CS(=O)Cc2nc(-c3ccccc3C)oc2C)CC1 (configuration not stated) |  | active: 12.6 µM
31 | Cc1cccc(NC(=S)N/C(=N/S(=O)(=O)c2ccccc2)c2ccccc2)c1 |  | inconclusive [inhibitor, full curve]
32 | CCOC(=O)C(=CNNc1ccccc1)C(=O)OCC |  | active: 2.24 µM
33 | COC(CNC(=S)Nc1ccc([N+](=O)[O-])cc1)OC |  | inconclusive [inhibitor, partial curve]
34 | Cc1ccc(/C=C/C(=O)OC(C)C(=O)Nc2ccc(Cl)cn2)o1 (configuration not stated) |  | active: 12.6 µM
35 | Cc1ccc(OCC(=O)Nc2ccc(Cl)c(-c3nc4ccccc4[nH]3)c2)cc1C | inactive: 1.61% | 
36 | CCC1CN(C(=O)N2CCC(C(=O)NCCC3=CCCCC3)CC2)c2cc(C)ccc2O1 (configuration not stated) | inactive: 3.04% | 
37 | CN(C)[C@@H]1C(=O)C(C(N)=O)=C(O)[C@@]2(O)C(=O)C3=C(O)c4c(O)cccc4[C@@](C)(O)C3[C@H](O)C12 (some centres not stated) |  | active: 12.6 µM and active: 8.91 µM
38 | COc1ccc(/C=N/Nc2nc3ccccc3c(=O)n2-c2ccccc2)cc1OC | inactive: -0.708% | 
39 | COc1ccc(C2OCC3(O)C(c4ccc(OC)c(OC)c4)OCC23)cc1OC (configuration not stated) |  | inconclusive [inhibitor, single point]
40 | Cc1cccc(C(=O)OCC(=O)Nc2nnc(-c3ccccc3)o2)c1O | inactive: 6.55% | 
41 | O=C(CNC(=O)c1ccc(Cl)cc1)OCc1cc(=O)n2ccsc2n1 |  | active: 35.5 µM
42 | Cc1ccnc(N2C(=O)c3cccc4c([N+](=O)[O-])ccc(c34)C2=O)c1 | inactive: -20.6% | 
43 | Cc1[nH]c2ccccc2c1C(=O)CNc1nccs1 | inactive: -4.79% | 
44 | Cc1ccc(NC(=O)Cn2c(CCC(=O)O)ccc2-c2ccc(Cl)cc2)cc1 |  | inconclusive [inhibitor, partial curve]
45 | COCCN(CC1CCCN(C2Cc3ccccc3C2)C1)C(=O)CCSC (configuration not stated) |  | inconclusive [inhibitor, full curve]
46 | CCCCOc1ccc(C2OC34CCCCC3C(C#N)(C#N)C2(C#N)C(=N)O4)cc1 (configuration not stated) |  | inconclusive [inhibitor, partial curve, poor fit]
47 | O=[N+]([O-])c1ccc(Sc2n[nH]c(-c3ccco3)n2)nc1 |  | inconclusive [inhibitor, single point]
